For test [1], the target named is HZ-L-Yr-16-Fc. The experiment in a line: flow cytometry on cells.
The target of test [2] is HZ-L-Yr-16-Fc. The test is described as follows: ELISA. Background: In an ELISA, binding on a coated surface is turned into a signal by an enzyme label.

The record followed here is paper PMC8237747 (Journal for Immunotherapy of Cancer, 2021).

B1: human 4-1BB overexpressed on CHO cells (CHO-hu4-1BB) (receptor)
chain: not shown
In the case of B1, in the test with HZ-L-Yr-16-Fc [1], the binding result is on record as “binds”.

B2: Human 4-1BB (recombinant protein, ACRO Biosystems) (receptor)
chain: not shown
Take B2: the binding result in the test with HZ-L-Yr-16-Fc [2] is listed as “binds”.
